# Some of the results follow.
# How the values were obtained:
# Assay in all cases: glycan array binding signal (z-score within array); higher = stronger binding
# Settings in all cases: glycan notation: IUPAC condensed, linker removed; mutation: R120K
# [1] = molecular target: Fuc(a1-2)[Gal(a1-3)]Gal(b1-4)[Fuc(a1-3)]GlcNAc(b1-3)GalNAc
# Summary of the method: (§1)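 Arrays were curated from the Consortium for Functional Glycomics database, 3228 in total, and kept only where the protein sequence was available. Binding is expressed as a within-array Z-score. This score was averaged across arrays of the same protein sequence at different concentrations or buffers and across linkers, and negative values can be read as non-binding.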
# [2] = molecular target: Fuc(a1-2)[Gal(a1-4)]Gal(b1-4)GlcNAc
# Summary of the method: as §1
# [3] = molecular target: Fuc(a1-2)[GalNAc(a1-3)]Gal
# Summary of the method: as §1
# [4] = molecular target: Fuc(a1-2)[GalNAc(a1-3)]Gal(b1-3)GalNAc(a1-3)[Fuc(a1-2)]Gal(b1-4)GlcNAc
# Summary of the method: as §1
# [5] = molecular target: Fuc(a1-2)[GalNAc(a1-3)]Gal(b1-3)GalNAc(b1-3)Gal(a1-4)Gal(b1-4)Glc
# Summary of the method: as §1
# [6] = molecular target: Fuc(a1-2)[GalNAc(a1-3)]Gal(b1-3)GlcNAc
# Summary of the method: as §1
# [7] = molecular target: Fuc(a1-2)[GalNAc(a1-3)]Gal(b1-3)GlcNAc(b1-2)Man(a1-3)[Fuc(a1-2)[GalNAc(a1-3)]Gal(b1-3)GlcNAc(b1-2)Man(a1-6)]Man(b1-4)GlcNAc(b1-4)GlcNAc
# Summary of the method: as §1
# [8] = molecular target: Fuc(a1-2)[GalNAc(a1-3)]Gal(b1-3)GlcNAc(b1-2)Man(a1-3)[Fuc(a1-2)[GalNAc(a1-3)]Gal(b1-3)GlcNAc(b1-2)Man(a1-6)]Man(b1-4)GlcNAc(b1-4)[Fuc(a1-6)]GlcNAc
# Summary of the method: as §1
# [9] = molecular target: Fuc(a1-2)[GalNAc(a1-3)]Gal(b1-3)GlcNAc(b1-3)GalNAc
# Summary of the method: as §1
# [10] = molecular target: Fuc(a1-2)[GalNAc(a1-3)]Gal(b1-3)GlcNAc(b1-6)GalNAc
# Summary of the method: as §1
# [11] = molecular target: Fuc(a1-2)[GalNAc(a1-3)]Gal(b1-4)Glc
# Summary of the method: as §1
# [12] = molecular target: Fuc(a1-2)[GalNAc(a1-3)]Gal(b1-4)GlcNAc
# Summary of the method: as §1
# [13] = molecular target: Fuc(a1-2)[GalNAc(a1-3)]Gal(b1-4)GlcNAc(b1-2)Man
# Summary of the method: as §1
# [14] = molecular target: Fuc(a1-2)[GalNAc(a1-3)]Gal(b1-4)GlcNAc(b1-2)Man(a1-3)[Fuc(a1-2)[GalNAc(a1-3)]Gal(b1-4)GlcNAc(b1-2)Man(a1-6)]Man(b1-4)GlcNAc(b1-4)GlcNAc
# Summary of the method: as §1
# [15] = molecular target: Fuc(a1-2)[GalNAc(a1-3)]Gal(b1-4)GlcNAc(b1-2)Man(a1-3)[Fuc(a1-2)[GalNAc(a1-3)]Gal(b1-4)GlcNAc(b1-2)Man(a1-6)]Man(b1-4)GlcNAc(b1-4)[Fuc(a1-6)]GlcNAc
# Summary of the method: as §1
# [16] = molecular target: Fuc(a1-2)[GalNAc(a1-3)]Gal(b1-4)GlcNAc(b1-3)Gal(b1-4)GlcNAc
# Summary of the method: as §1
# [17] = molecular target: Fuc(a1-2)[GalNAc(a1-3)]Gal(b1-4)GlcNAc(b1-3)Gal(b1-4)GlcNAc(b1-3)Gal(b1-4)GlcNAc
# Summary of the method: as §1
# [18] = molecular target: Fuc(a1-2)[GalNAc(a1-3)]Gal(b1-4)GlcNAc(b1-3)GalNAc
# Summary of the method: as §1
# [19] = molecular target: Fuc(a1-2)[GalNAc(a1-3)]Gal(b1-4)GlcNAc(b1-3)[Fuc(a1-2)[GalNAc(a1-3)]Gal(b1-4)GlcNAc(b1-6)]GalNAc
# Summary of the method: as §1
# [20] = molecular target: Fuc(a1-2)[GalNAc(a1-3)]Gal(b1-4)GlcNAc(b1-6)GalNAc
# Summary of the method: as §1
# [21] = molecular target: Fuc(a1-2)[GalNAc(a1-3)]Gal(b1-4)[Fuc(a1-3)]GlcNAc
# Summary of the method: as §1
# [22] = molecular target: Fuc(a1-2)[GalNAc(a1-3)]Gal(b1-4)[Fuc(a1-3)]GlcNAc(b1-3)GalNAc
# Summary of the method: as §1
# [23] = molecular target: Fuc(a1-2)[GalNAc(a1-4)]Gal(b1-4)GlcNAc
# Summary of the method: as §1
# [24] = molecular target: Fuc(a1-2)[GalNAc(b1-3)]Gal
# Summary of the method: as §1
# Fuc(a1-3)GlcNAc = molecular target: Fuc(a1-3)GlcNAc
# Summary of the method: as §1
# [25] = molecular target: Fuc(a1-3)[Gal(b1-4)]Glc6S
# Summary of the method: as §1
# [26] = molecular target: Fuc(a1-3)[Gal(b1-4)]GlcNAc
# Summary of the method: as §1
# [27] = molecular target: Fuc(a1-3)[Gal(b1-4)]GlcNAc(b1-2)Man
# Summary of the method: as §1
# [28] = molecular target: Fuc(a1-3)[Gal(b1-4)]GlcNAc(b1-2)Man(a1-3)[Fuc(a1-3)[Gal(b1-4)]GlcNAc(b1-2)Man(a1-6)]Man(b1-4)GlcNAc(b1-4)GlcNAc
# Summary of the method: as §1
# [29] = molecular target: Fuc(a1-3)[Gal(b1-4)]GlcNAc(b1-2)Man(a1-3)[Fuc(a1-3)[Gal(b1-4)]GlcNAc(b1-2)Man(a1-6)]Man(b1-4)GlcNAc(b1-4)[Fuc(a1-6)]GlcNAc
# Summary of the method: as §1
# [30] = molecular target: Fuc(a1-3)[Gal(b1-4)]GlcNAc(b1-3)Gal(b1-3)[Fuc(a1-4)]GlcNAc
# Summary of the method: as §1
# [31] = molecular target: Fuc(a1-3)[Gal(b1-4)]GlcNAc(b1-3)Gal(b1-4)[Fuc(a1-3)]GlcNAc
# Summary of the method: as §1
# [32] = molecular target: Fuc(a1-3)[Gal(b1-4)]GlcNAc(b1-3)Gal(b1-4)[Fuc(a1-3)]GlcNAc(b1-3)Gal(b1-4)[Fuc(a1-3)]GlcNAc
# Summary of the method: as §1
# [33] = molecular target: Fuc(a1-3)[Gal(b1-4)]GlcNAc(b1-3)GalNAc
# Summary of the method: as §1
# [34] = molecular target: Fuc(a1-3)[Gal(b1-4)]GlcNAc(b1-6)GalNAc
# Summary of the method: as §1
# [35] = molecular target: Fuc(a1-3)[Gal(b1-4)]GlcNAc(b1-6)[Gal(b1-3)GlcNAc(b1-3)]Gal(b1-4)Glc
# Summary of the method: as §1
# [36] = molecular target: Fuc(a1-3)[Gal(b1-4)]GlcNAc6S
# Summary of the method: as §1
# [37] = molecular target: Fuc(a1-3)[Gal3S(b1-4)]Glc
# Summary of the method: as §1
binder,measurement,setting,value
"Siglec-9 (Homo sapiens), Q9Y336 (protein) MLLLLLPLLWGRERAEGQTSKLLTMQSSVTVQEGLCVHVPCSFSYPSHGWIYPGPVVHGYWFREGANTDQDAPVATNNPARAVWEETRDRFHLLGDPHTKNCTLSIRDARRSDAGRYFFKMEKGSIKWNYKHHRLSVNVTALTHRPNILIPGTLESGCPQNLTCSVPWACEQGTPPMISWIGTSVSPLDPSTTRSSVLTLIPQPQDHGTSLTCQVTFPGASVTTNKTVHLNVSYPPQNLTMTVFQGDGTVSTVLGNGSSLSLPEGQSLRLVCAVDAVDSNPPARLSLSWRGLTLCPSQPSNPGVLELPWVHLRDAAEFTCRAQNPLGSQQVYLNVSLQSKATSGVTQGVVGGAGATALVFLSFCVIFVVVRSCRKKSARPAAGVGDTGIEDANAVRGSASQGPLTEPWAEDSPPDQPPPASARSSVGEGELQYASLSFQMVKPWDSRGQEATDTEYSEIKIHR",glycan array binding signal (z-score),[1],-0.041
same,glycan array binding signal (z-score),[2],0.346
same,glycan array binding signal (z-score),[3],-0.409
same,glycan array binding signal (z-score),[4],-0.024
same,glycan array binding signal (z-score),[5],-0.378
same,glycan array binding signal (z-score),[6],-0.271
same,glycan array binding signal (z-score),[7],-0.472
same,glycan array binding signal (z-score),[8],1.13
same,glycan array binding signal (z-score),[9],0.362
same,glycan array binding signal (z-score),[10],-0.432
same,glycan array binding signal (z-score),[11],-0.252
same,glycan array binding signal (z-score),[12],-0.241
same,glycan array binding signal (z-score),[13],0.112
same,glycan array binding signal (z-score),[14],-0.011
same,glycan array binding signal (z-score),[15],0.487
same,glycan array binding signal (z-score),[16],-0.399
same,glycan array binding signal (z-score),[17],-0.302
same,glycan array binding signal (z-score),[18],-0.125
same,glycan array binding signal (z-score),[19],0.672
same,glycan array binding signal (z-score),[20],-0.433
same,glycan array binding signal (z-score),[21],-0.182
same,glycan array binding signal (z-score),[22],-0.138
same,glycan array binding signal (z-score),[23],-0.264
same,glycan array binding signal (z-score),[24],-0.476
same,glycan array binding signal (z-score),Fuc(a1-3)GlcNAc,-0.568
same,glycan array binding signal (z-score),[25],0.876
same,glycan array binding signal (z-score),[26],-0.448
same,glycan array binding signal (z-score),[27],0.069
same,glycan array binding signal (z-score),[28],-0.414
same,glycan array binding signal (z-score),[29],-0.043
same,glycan array binding signal (z-score),[30],-0.304
same,glycan array binding signal (z-score),[31],-0.109
same,glycan array binding signal (z-score),[32],-0.343
same,glycan array binding signal (z-score),[33],0.003
same,glycan array binding signal (z-score),[34],-0.181
same,glycan array binding signal (z-score),[35],-0.027
same,glycan array binding signal (z-score),[36],1.14
same,glycan array binding signal (z-score),[37],0.128

# — the supplement of paper PMC8728848
